Measurements: the supplement of paper PMC3724861
Some of the results follow.

test system: T1, Caupolican (Caup) homeodomain DNA-binding domain; test: PBM E-score (8-mer, recovered from the published 9-mer minima) (E-score (dimensionless, -0.5 to 0.5)); Drosophila protein; higher = stronger relative binding preference, active = 0.31 or more
T1 sequence: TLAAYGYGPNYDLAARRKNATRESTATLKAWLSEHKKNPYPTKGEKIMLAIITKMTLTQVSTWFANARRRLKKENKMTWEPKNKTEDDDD
How it was run: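 Caup's homeodomain DNA-binding domain (residues 214-303) was produced by in vitro transcription and translation and applied at 100 nM to custom-designed protein binding microarrays. Each value is an enrichment score giving relative binding preference for a short DNA word; higher means stronger. Published 9-mer scores were the minimum of their two constituent 8-mer scores, and the 8-mer values were recovered from those minima. A cutoff of 0.31 marks candidate binding sequences.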

Row | Sequence | PBM E-score
1 | AGAAATCG | inactive: 0.00457
2 | GACTCATA | inactive: 0.0435
3 | CTGATACC | inactive: 0.163
4 | GTCCAGCA | inactive: -0.0366
5 | AGTCTCGA | inactive: -0.00595
6 | CTTCTCCC | inactive: -0.201
7 | CGGTGCTC | inactive: -0.149
8 | CACTCACG | inactive: -0.0531
9 | ACATACTG | inactive: 0.245
10 | CAGGCCCG | inactive: -0.295
11 | AACGGAAA | inactive: -0.0287
12 | ATAATACG | inactive: 0.142
13 | CTTGGAGA | inactive: -0.0308
14 | CCTAATCG | inactive: 0.0782
15 | CTTTTGAA | inactive: -0.0687
16 | CGCGAAAA | inactive: -0.0881
17 | ACTAACAC | inactive: 0.279
18 | AGTTAAGC | inactive: 0.0239
19 | AACGCATC | inactive: -0.0164
20 | AAAGATAG | inactive: -0.0157
21 | CTAATGAA | inactive: -0.00561
22 | AAGTCTCA | inactive: -0.0571
23 | GAGACTAA | inactive: 0.0224
24 | CTAGTCAG | inactive: 0.0696

Row | Sequence | PBM E-score
25 | GCCGCGGA | inactive: -0.221
26 | GCGGGTCA | inactive: -0.0841
27 | AGCCGTTA | inactive: -0.0603
28 | CGGGCAGC | inactive: -0.219
29 | CACCCGCG | inactive: -0.124
30 | CGGATCCG | inactive: -0.166
31 | GGCCCTAA | inactive: -0.168
32 | AGATGGTC | inactive: -0.0504
33 | CAGAGTCA | inactive: -0.0248
34 | TATTCCCA | inactive: 0.0129
35 | AACTACGG | inactive: 0.0675
36 | CGATCTTC | inactive: -0.103
37 | CAGCCCAG | inactive: -0.167
38 | AGGAGGTC | inactive: -0.142
39 | AACGCTCT | inactive: -0.0982
40 | CCCCGTTA | inactive: -0.12
41 | AAATTTGA | inactive: 0.0791
42 | CTTACAAG | active: 0.343
43 | GTACTGAC | inactive: 0.0859
44 | GCGATTCC | inactive: -0.126
45 | ACATACCT | ≥ 0.303
46 | CCCTCTAC | inactive: -0.103
47 | AATGATTC | inactive: 0.129
48 | AGCCCGCA | inactive: -0.167

Row | Sequence | PBM E-score
49 | ACCTGAGA | inactive: -0.0651
50 | TCGGAGCA | inactive: -0.0994
51 | CCGAACCA | inactive: -0.153
52 | AAATGCCG | inactive: -0.0646
53 | AAAAGGAC | inactive: 0.0342
54 | AACCACTG | inactive: 0.113
55 | ACCGCAGT | ≥ -0.0174
56 | GAGCCCGA | inactive: -0.0794
57 | ACCGACCC | inactive: -0.184
58 | CTCCGCCC | inactive: -0.311
59 | CCTTCGTC | inactive: -0.0621
60 | GCAGAGTA | inactive: 0.0006
61 | GAGTATTA | inactive: 0.146
62 | AATAGCGG | inactive: -0.027
63 | AGCGTAGC | inactive: -0.111
64 | GAGATTGC | inactive: -0.125
65 | AAGCTGAC | inactive: -0.0149
66 | CCGGCATC | inactive: -0.155
67 | CCTGTGAC | inactive: 0.0838
68 | ATTGAAGG | inactive: -0.0219
69 | CAAACGGC | inactive: -0.215
70 | AAGAGTAA | inactive: 0.146
71 | AACCGTAT | inactive: -0.00421
72 | ATTCCTCG | inactive: 0.011

Row | Sequence | PBM E-score
73 | CTATAGTC | inactive: 0.0377
74 | CAACACCG | inactive: 0.0695
75 | ATGGGTAA | inactive: 0.0789
76 | GTGGCAAC | inactive: -0.00326
77 | CTTACTCC | inactive: 0.0174
78 | ACTCCCCA | ≥ -0.0709
79 | CGTAATCA | inactive: 0.192
80 | CCGCCCCA | inactive: -0.153
81 | AGTGTCTA | inactive: 0.163
82 | ACTTCGGA | ≥ 0.0559
83 | AGAAAGCG | inactive: -0.111
84 | CCCTATGC | inactive: -0.0629
85 | AGGCGACT | inactive: -0.195
86 | CCTAAGGA | inactive: -0.0669
87 | TCTCTAAA | inactive: -0.0641
88 | GCGGCGCC | inactive: -0.193
89 | CAACCGAG | inactive: -0.116
90 | ATTGTTCG | inactive: 0.213
91 | GCACGCCA | inactive: -0.261
92 | GCTCGAAA | inactive: -0.135
93 | ATCTCCTG | inactive: 0.0228
94 | CCCACCGC | inactive: -0.257
95 | GACCTCAA | inactive: 0.0301
96 | CAGCGAAG | inactive: -0.0941

Row | Sequence | PBM E-score
97 | CGAACAAA | inactive: 0.157
98 | TATTCGCA | ≥ 0.0752
99 | GTATCGAA | inactive: 0.116
100 | CTTTTCGA | inactive: 0.0578
101 | GCATGGTA | inactive: 0.166
102 | AAAGAACT | inactive: 0.0182
103 | CTTCACGA | inactive: -0.0899
104 | AGTATCGC | inactive: -0.0141
105 | ATTCAGGA | inactive: 0.0111
106 | ATAGAGGC | inactive: -0.0401
107 | CCATATGA | inactive: -0.0127
108 | ACCATCTC | inactive: -0.0446
109 | CCCTCACA | inactive: -0.0459
110 | TCCAGAGA | inactive: -0.105
111 | CCGATACC | inactive: -0.0961
112 | TCAATAAA | inactive: 0.109
113 | CTTTTGGA | inactive: -0.0829
114 | AGAGGACC | inactive: -0.18
115 | GGTTTTGA | inactive: 0.0383
116 | GGTTCAGA | inactive: -0.0796
117 | AGTGCGAT | inactive: -0.0996
118 | TCTGCCCA | inactive: -0.188
119 | ACCACCGA | inactive: -0.0808
120 | CGACAAAA | inactive: 0.126

Row | Sequence | PBM E-score
121 | CTGGACAA | inactive: 0.124
122 | CAACCCAG | inactive: -0.0708
123 | CGCATTAA | inactive: 0.0572
124 | AACCTTGG | inactive: -0.0417
125 | CCTCCTGC | inactive: -0.184
126 | GCAGAGAC | inactive: -0.18
127 | GAGTACGC | inactive: -0.0783
128 | TTGAGCAA | inactive: 0.0766
129 | AAGCCCCG | inactive: -0.151
130 | GACTCAGA | inactive: -0.101
131 | AATTTGAC | inactive: 0.131
132 | CAGACCAC | inactive: -0.0536
133 | TACCGAGA | inactive: -0.0256
134 | CCTAGCGA | inactive: -0.173
135 | ATTATAAA | inactive: 0.0925
136 | GAGGTTGA | inactive: -0.0621
137 | ACTGCATC | inactive: 0.0148
138 | CGGTTAAA | inactive: -0.0624
139 | GTGGCCAC | ≥ -0.0189
140 | GACGGTGC | inactive: -0.184
141 | AGCGTTGA | inactive: -0.0449
142 | GAGGCAAA | inactive: -0.0558
